# Reference: the supplement of paper PMC7826260
# The list shows a part of the results. The data describe in vitro nicking of single-stranded DNA by Rep domains at 3 µM enzyme and 37 °C for 1 h; the strands have 90 letters, of which the middle is given. A value is the log2 ratio of uncut reads to the pool without enzyme; strong cutting gives strongly negative numbers. There is no active / inactive call. Shares of all reads are compared, so uncut sequences can rise above 0 when many others are cut.
# Assays:
# Test in all cases: uncleaved DNA left, log2 of reads against the no-enzyme library (log2 ratio); higher = less cleavage (more negative = more Rep cleavage of the k-mer); sequences stand for … in CTCGTCCG…ACCGGAGA
# [1] = test system: T1, Rep nickase domain of Muscovy duck circovirus
# T1 sequence (residues 1-111 of Rep, tag left off): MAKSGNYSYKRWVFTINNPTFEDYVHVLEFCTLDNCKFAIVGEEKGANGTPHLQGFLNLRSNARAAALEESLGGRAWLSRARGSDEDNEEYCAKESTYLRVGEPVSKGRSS
# Description: (§1)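 A pool of 90-nt single-stranded DNAs with seven random bases just before the constant AC of the nick site (name = the seven bases) was cut by 3 µM recombinant His6-SUMO-tagged Rep nickase domain (300 nM DNA, 50 mM HEPES pH 8.0, 50 mM NaCl, 1 mM MnCl2, 1 h, 37 °C, three replicates). Uncut DNA was amplified and sequenced.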
# [2] = test system: T2, Rep nickase domain of banana bunchy top virus
# T2 sequence (residues 1-94 of Rep, tag left off): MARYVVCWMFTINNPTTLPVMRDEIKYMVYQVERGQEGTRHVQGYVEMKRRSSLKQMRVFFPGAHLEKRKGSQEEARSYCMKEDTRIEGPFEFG
# Description: as §1
# [3] = test system: T3, Rep nickase domain of cabbage leaf curl virus
# T3 sequence (residues 1-116 of Rep, tag left off): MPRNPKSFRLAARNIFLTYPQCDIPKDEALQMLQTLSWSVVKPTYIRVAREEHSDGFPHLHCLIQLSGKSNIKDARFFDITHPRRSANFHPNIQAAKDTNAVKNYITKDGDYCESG
# Description: as §1
# [4] = test system: T4, Rep nickase domain of chickpea chlorotic dwarf virus
# T4 sequence (residues 1-124 of Rep, tag left off): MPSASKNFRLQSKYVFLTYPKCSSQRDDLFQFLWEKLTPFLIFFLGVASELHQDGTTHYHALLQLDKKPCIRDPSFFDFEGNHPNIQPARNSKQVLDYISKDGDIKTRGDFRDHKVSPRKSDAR
# Description: as §1
# [5] = test system: T5, Rep nickase domain of faba bean necrotic yellows virus
# T5 sequence (residues 1-98 of Rep, tag left off): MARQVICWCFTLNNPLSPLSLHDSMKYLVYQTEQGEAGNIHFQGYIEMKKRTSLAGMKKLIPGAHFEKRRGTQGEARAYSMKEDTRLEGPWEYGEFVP
# Description: as §1
# [6] = test system: T6, Rep nickase domain of maize striate mosaic virus
# T6 sequence (residues 1-117 of Rep, tag left off): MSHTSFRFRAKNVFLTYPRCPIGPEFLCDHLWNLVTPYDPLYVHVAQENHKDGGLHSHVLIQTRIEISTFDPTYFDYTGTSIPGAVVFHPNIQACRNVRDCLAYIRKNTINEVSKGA
# Description: as §1
# [7] = test system: T7, Rep nickase domain of porcine circovirus 2
# T7 sequence (residues 2-116 of Rep, tag left off): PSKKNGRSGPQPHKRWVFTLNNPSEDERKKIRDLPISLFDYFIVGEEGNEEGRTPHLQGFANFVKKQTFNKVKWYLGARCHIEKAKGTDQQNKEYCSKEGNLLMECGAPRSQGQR
# Description: as §1
# [8] = test system: T8, Rep nickase domain of tomato yellow leaf curl virus
# T8 sequence (residues 1-136 of Rep, tag left off): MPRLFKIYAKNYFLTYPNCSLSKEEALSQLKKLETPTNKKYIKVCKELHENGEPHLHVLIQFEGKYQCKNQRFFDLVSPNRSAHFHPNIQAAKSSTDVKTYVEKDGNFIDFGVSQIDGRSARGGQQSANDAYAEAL
# Description: as §1
# [9] = test system: T9, Rep nickase domain of wheat dwarf virus
# T9 sequence (residues 1-137 of Rep, tag left off): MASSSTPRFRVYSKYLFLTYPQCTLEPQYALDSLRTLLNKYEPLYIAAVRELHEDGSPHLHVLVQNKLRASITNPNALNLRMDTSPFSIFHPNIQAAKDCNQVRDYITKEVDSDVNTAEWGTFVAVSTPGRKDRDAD
# Description: as §1
Sequence,uncleaved DNA left (log2) [1],uncleaved DNA left (log2) [2],uncleaved DNA left (log2) [3],uncleaved DNA left (log2) [4],uncleaved DNA left (log2) [5],uncleaved DNA left (log2) [6],uncleaved DNA left (log2) [7],uncleaved DNA left (log2) [8],uncleaved DNA left (log2) [9]
TGAACCT,-0.0895,-0.0565,0.181,-1.26,-0.0922,0.419,-0.474,-0.039,0.118
TAGCAAC,-0.0181,-0.0249,-0.113,-1.06,-0.147,-0.376,-0.407,-0.0721,-0.112
GTATATG,0.054,-0.0659,-0.0523,0.323,0.127,-0.241,0.129,0.0493,0.0902
GTAGCCA,0.0348,0.128,0.303,0.808,-0.0127,1.41,0.132,0.0808,0.125
ACTCTAC,-0.0238,-0.146,-0.487,-2.17,-0.0922,-0.865,0.0159,-0.197,-0.143
CATGTAT,0.00574,-0.185,-0.0727,-0.7,0.0232,-0.456,-0.185,-0.175,-0.00157
TGGCGTC,-0.0818,-0.0487,-0.248,-0.45,-0.137,-0.676,0.0799,-0.0948,-0.0846
ATGCGGA,-0.0421,-0.012,-0.471,-0.533,0.0675,-1.19,-0.0383,0.0277,-0.167
GAATAAT,-2.73,-0.637,-2.93,-2.79,-0.0968,-2.08,-2.95,-0.186,-2.87
AAATCAG,0.000518,0.0347,-0.731,-0.192,-0.00386,-1.17,0.244,0.0699,0.0105
CGGACCA,-0.00884,0.0321,0.476,0.989,-0.126,1.32,0.0214,0.0103,0.115
CGAGCTA,0.00886,0.0182,-0.465,-0.0784,-0.0372,0.24,-1,-0.114,0.0104
AATGCAT,0.0442,-0.038,-0.139,-0.128,-0.00727,-0.225,-0.192,-0.0458,0.0694
AGTTACG,0.0456,0.0363,-0.625,-0.545,0.0108,-1.04,0.2,0.084,-0.0353
TATGTTA,-0.0788,-0.00144,-0.0813,-1.65,0.0501,-0.325,-0.278,0.123,-0.218
GCTTTGG,0.189,0.0596,-0.157,-0.0936,0.167,-0.807,0.234,0.189,0.0245
ACCGAAT,-0.00604,-0.0485,0.109,0.000661,0.0252,-0.342,0.126,-0.044,-0.0107
TTTATTG,0.105,-0.0502,-0.471,-0.658,0.127,-1.03,0.157,0.0688,-0.0397
GATCGGG,0.113,0.0763,0.251,0.397,0.137,-0.049,0.195,0.0781,0.11
TTGGGAC,-0.0498,0.00902,0.804,1.94,-0.0867,2.19,0.182,0.081,0.172
CATCTGC,-0.0966,-0.0536,-0.599,-0.651,-0.00613,-1.03,0.0705,-0.0246,-0.0591
CCTACCA,-0.251,-0.0231,-0.504,-2.66,-0.0918,-0.594,-0.78,-0.0378,-0.0956

Sequence,uncleaved DNA left (log2) [1],uncleaved DNA left (log2) [2],uncleaved DNA left (log2) [3],uncleaved DNA left (log2) [4],uncleaved DNA left (log2) [5],uncleaved DNA left (log2) [6],uncleaved DNA left (log2) [7],uncleaved DNA left (log2) [8],uncleaved DNA left (log2) [9]
GGAAAAG,0.0968,0.151,0.326,0.831,0.0563,0.0424,0.272,0.116,0.229
TGGCATG,0.0346,-0.0723,0.12,0.652,-0.0702,0.478,-0.0422,-0.171,0.13
ATTATAC,0.000557,0.113,0.0272,-0.895,0.0727,-0.85,-0.00668,0.0232,0.0403
TCGAGGA,-0.0504,-0.0589,0.018,0.257,-0.0552,-0.143,-0.169,-0.107,-0.171
ACGAACC,-0.00184,0.104,-0.0439,-0.212,0.0686,-0.175,-0.0836,-0.0925,-0.0158
GGTTTGT,-0.0733,0.0545,0.415,1.23,-0.081,1.5,-0.105,0.079,0.0386
AGTAGAC,0.00374,-0.0193,0.142,0.772,0.0385,0.943,0.0626,-0.103,0.0675
AAACGGC,0.0911,0.145,0.00125,-0.265,0.0187,-0.722,0.064,-0.0584,0.085
CCGTGCT,-0.536,-0.223,-1.66,-1.69,-0.277,-0.883,-2.75,-0.0438,-1.07
CCAACTA,-0.0911,0.152,-0.118,-2.21,0.0748,-0.6,0.0899,-0.00165,0.0941
GTAGTGG,0.0801,0.0285,0.243,0.577,0.011,0.323,0.122,0.0422,0.087
CGTGCTG,-0.0979,-0.226,-0.108,0.544,-0.0613,1.25,-0.0885,-0.154,-0.147
TGCAACT,-0.0225,-0.0236,0.183,-1.71,-0.136,0.707,-0.158,-0.109,-0.0465
TACACTT,-0.552,-1.69,-2.7,-2.79,0.0036,-0.702,-3.18,-0.0421,-0.655
ATAATAT,0.0581,0.0499,0.29,-0.997,0.118,-0.608,-0.0226,0.0236,0.0627
CGTGCAA,-0.0419,-0.047,0.0751,0.159,-0.00902,-0.136,-0.187,0.0367,-0.0876
GACAAGG,0.0382,0.0953,0.294,1.12,0.0448,0.686,0.233,0.0601,0.012
GCTGTAC,0.0567,-0.0885,0.0257,0.141,-0.0962,0.505,0.0938,0.0356,-0.0107
CATAGTT,-0.0583,-1.79,-0.491,-2.8,0.0854,-0.94,-2.13,0.0092,-0.085
TGCCACG,0.139,-0.0157,-0.595,-0.702,0.116,-0.941,0.204,-0.00599,-0.0365
CCTATTT,-0.00736,-0.116,-0.188,-2.68,-0.0676,-0.665,-0.833,-0.0604,-0.0494
GGACAGA,0.195,0.301,1.13,2.22,0.232,2.48,0.378,0.137,0.361

Sequence,uncleaved DNA left (log2) [1],uncleaved DNA left (log2) [2],uncleaved DNA left (log2) [3],uncleaved DNA left (log2) [4],uncleaved DNA left (log2) [5],uncleaved DNA left (log2) [6],uncleaved DNA left (log2) [7],uncleaved DNA left (log2) [8],uncleaved DNA left (log2) [9]
ATGGAGA,-0.0405,-0.055,-0.105,0.567,-0.0168,-0.127,0.193,-0.122,-0.0637
TACGCTT,0.0523,-0.133,-2.7,-2.75,-0.0842,-0.788,-1.97,0.0528,-0.395
GAGGTCC,-0.0684,0.0358,0.352,0.764,-0.0816,1.34,-0.169,0.0021,0.18
AATGCAA,-0.0153,0.0599,-0.281,-0.314,0.0767,-0.864,0.0717,0.0979,-0.0197
CGAGATT,-0.132,-0.161,0.0277,-1.2,-0.0127,-0.078,-0.611,0.0379,-0.114
TTAGTTA,0.0689,-0.141,0.136,-0.94,0.00858,0.17,-0.164,0.0389,-0.0484
TGGCACT,0.172,-0.0119,0.496,0.61,-0.119,1.58,0.0599,0.0653,0.168
TAGCCCA,-0.0997,-0.0624,-0.223,-2.33,-0.0632,-0.15,-1.56,0.0772,-0.122
TCCATTG,0.0874,-0.0107,-0.549,-0.533,0.0699,-1.27,0.199,0.159,0.104
GGATATC,0.0766,0.122,0.768,1.72,0.0649,2.09,0.239,0.0797,0.243
AGGAATG,-0.128,-0.122,-0.0198,0.561,-0.168,1.35,-0.00278,-0.186,-0.043
GCTTGCA,0.0748,0.0235,-0.554,-0.41,0.00359,-1.19,0.127,0.0438,-0.0298
TCGCGAC,-0.0244,-0.148,-0.173,-0.141,0.0182,-0.804,-0.0882,0.00439,-0.164
CTGTTTG,0.0178,-0.122,-0.724,-0.728,-0.112,-1.02,0.0874,-0.132,-0.218
TTTGCCA,0.047,0.0526,-0.352,-1.14,0.105,-0.955,-0.0664,0.105,-0.0208
TCGTTAT,-0.0529,-0.121,0.0676,-0.723,-0.0113,-0.181,-2.75,0.00519,-0.122
TGGGGCC,-0.106,0.00869,0.628,1.52,-0.0656,1.93,0.106,-0.058,-0.0768
ATCTCGA,-0.0592,-0.0308,-0.429,-0.588,-0.0319,-1.06,0.0454,-0.0876,-0.0823
TCCGTTT,0.063,-0.0312,0.184,-0.32,-0.011,0.612,-0.158,0.182,0.0659
GCCGCTG,0.00273,-0.0699,0.0207,0.608,-0.078,1.13,-0.0429,-0.234,0.015
